Experimental data reported in publication PMC9352552.
These are yes or no findings as the source states them, for the method shown. Some entries that bind do so weakly or less than the wild type. Where a sequence is shown, tags or fusion partners need not be part of it.

How the values were obtained:
Assay in all cases: two-hybrid; yeast AH109; tails fused with the Gal4-binding domain, μ subunits with the Gal4-activation domain; growth on medium lacking histidine, leucine and tryptophan
[1] = molecular target: APP cytosolic tail I656A (human) (UniProt P05067)
[2] = molecular target: APP cytosolic tail Y682A (human) (UniProt P05067)
[3] = molecular target: APP cytosolic tail Y653A (human) (UniProt P05067)
[4] = molecular target: APP cytosolic tail Y653A/I656A (human) (UniProt P05067)
[5] = molecular target: Human APP cytosolic tail (isoform 695) fused with the Gal4-binding domain (human) (UniProt P05067)
[6] = molecular target: APP cytosolic tail Y687A (human) (UniProt P05067)

Row | Binder | binding [1] | binding [2] | binding [3] | binding [4] | binding [5] | binding [6]
1 | C-terminal domain of human μ1B (residues 137-423) fused with the Gal4-activation domain (domain or fragment, UniProt Q9Y6Q5 137-423) QQSNKLETGKSRVPPTVTNAVSWRSEGIKYKKNEVFIDVIESVNLLVNANGSVLLSEIVGTIKLKVFLSGMPELRLGLNDRVLFELTGRSKNKSVELEDVKFHQCVRLSRFDNDRTISFIPPDGDFELMSYRLSTQVKPLIWIESVIEKFSHSRVEIMVKAKGQFKKQSVANGVEISVPVPSDADSPRFKTSVGSAKYVPERNVVIWSIKSFPGGKEYLMRAHFGLPSVEKEEVEGRPPIGVKFEIPYFTVSGIQVRYMKIIEKSGYQALPWVRYITQSGDYQLRTS | binds | no binding | binds | binds | binds | no binding
2 | Rat μ3A, full length, fused with the Gal4-activation domain (protein, UniProt P53676 1-418) MIHSLFLINCSGDIFLEKHWKSVVSQSVCDYFFEAQEKAADVENVPTVISTPHHYLISIYRDKLFFVSVIQTEVPPLFVIEFLHRVADTFQDYFGECSEAAIKDNVVIVYELLEEMLDNGFPLATESNILKELIKPPTILRSVVNSITGSSNVGDTLPTGQLSNIPWRRAGVKYTNNEAYFDVVEEIDAIIDKSGSTVFAEIQGVIDACIKLSGMPDLSLSFMNPRLLDDVSFHPCIRFKRWESERVLSFIPPDGNFRLISYRVSSQNLVAIPVYVKHNISFKENSSCGRFDITIGPKQNMGKTIEGITVTVHMPKVVLNMNLTPTQGSYTFDPVTKVLAWDVGKITPQKLPSLKGLVNLQSGAPKPEENPNLNIQFKIQQLAISGLKVNRLDMYGEKYKPFKGVKYITKAGKFQVRT |  |  |  |  | no binding | 
